These results are taken from patent publication US11419945B2, “Antigen binding proteins” (Glaxo Group Limited, priority 2011, dated 2022).

Holding throughout (type): binding
In one assay the target is Cyno in house BCMA. Nature of the assay: ProteOn analysis of CA8 chimeric and humanised constructs, cyno in house BCMA. The conditions noted are these: 25° C.
In another assay the target is T1, Human commercial BCMA (Homo sapiens, UniProt Q02223).
T1 construct: purchased US Biological B0410
T1 sequence (Q02223 1-184): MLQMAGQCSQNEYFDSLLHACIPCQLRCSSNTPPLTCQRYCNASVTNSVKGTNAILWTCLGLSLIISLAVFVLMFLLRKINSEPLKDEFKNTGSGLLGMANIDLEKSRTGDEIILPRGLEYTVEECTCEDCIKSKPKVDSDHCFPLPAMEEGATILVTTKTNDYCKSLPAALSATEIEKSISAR
Nature of the assay: ProteOn analysis of CA8 chimeric and humanised constructs, commercial human BCMA. The settings on record: Run 2, commercial human BCMA, 25° C. On the procedure: (§1) The initial screen of CA8 chimeric and humanised variants was carried out on the ProteOn XPR36 (Biorad). The method was as follows; Protein A was immobilised on a GLC chip (Biorad, Cat No: 176-5011) by primary amine coupling, CA8 variants were then captured on this surface and recombinant human BCMA (in house or commercial US Biological, B0410) materials (run 2 only)) passed over at 256, 64, 16, 4, 1 nM with a 0 nM injection (i.e. buffer alone) used to double reference the binding curves, the buffer used is the HBS-EP buffer. 50 mM NaOH was used to regenerate the capture surface. The data was fitted to the 1:1 model using the analysis software inherent to the ProteOn XPR36. Run 1 corresponds to the first screen of humanised CA8 variants (JO to J5 series) and run 2 to the second screen of humanised CA8 variants (J5 to J9 series). Both runs were carried out at 25° C.

For assay [1], the target named is T2, Human in house BCMA (Homo sapiens, UniProt Q02223).
T2 construct: CD33 signal peptide (N); TEV site (internal); Fc (C); made in house
Nature of the assay: ProteOn analysis of CA8 chimeric and humanised constructs, human in house BCMA. The settings on record: 25° C.; for ka: in M-1s-1 (unit assumed); for kd: in s-1 (unit assumed). On the procedure:
as §1

Assay [2] deals with T2, Human in house BCMA. Nature of the assay: ProteOn analysis of new anti-BCMA chimeric constructs. The conditions noted are these: 25° C. On the procedure: The initial screen of the new chimeric variants from the second batch of hybridomas was carried out on the ProteOn XPR36 (Biorad). The method was as follows; Protein A was immobilised on a GLM chip (Biorad, Cat No: 176-5012) by primary amine coupling, anti-BCMA variants were then captured on this surface and recombinant human BCMA (in house material) passed over at 256, 64, 16, 4, 1 nM with a 0 nM injection (i.e. buffer alone) used to double reference the binding curves, the buffer used is the HBS-EP buffer. Regeneration of the capture surface was carried out using 50 mM NaOH. The data was fitted to the 1:1 model using the analysis software inherent to the ProteOn XPR36. The run was carried out at 25° C.

T2 sequence (Q02223 with tags, fused parts or gaps limits assumed): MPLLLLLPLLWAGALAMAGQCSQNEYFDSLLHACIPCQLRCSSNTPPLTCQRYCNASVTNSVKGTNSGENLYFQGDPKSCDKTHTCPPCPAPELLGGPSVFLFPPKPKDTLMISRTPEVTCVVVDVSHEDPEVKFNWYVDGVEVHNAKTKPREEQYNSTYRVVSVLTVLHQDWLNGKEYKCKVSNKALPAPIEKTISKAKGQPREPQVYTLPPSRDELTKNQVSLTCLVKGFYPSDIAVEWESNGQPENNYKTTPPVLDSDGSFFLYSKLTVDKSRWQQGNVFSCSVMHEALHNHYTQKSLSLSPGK

B1: S307118G03 Chimera: chimeric S307118G03, heavy chain SEQ ID NO:73, light chain SEQ ID NO:75 (antibody)
heavy: EVQLQQSGPELVKPGASVKISCKASGYTFTDYYMKWVKQSHGKSLEWIGEIYPNNGGITYNQKFKGKATLTVDKSSSTAYMELRSLTSEDSAVYYCANGYEFVYWGQGTLVTVSAAKTTAPSVFPLAPSSKSTSGGTAALGCLVKDYFPEPVTVSWNSGALTSGVHTFPAVLQSSGLYSLSSVVTVPSSSLGTQTYICNVNHKPSNTKVDKKV[omitted - human IgG1 Fc]
light: DIQMTQTASSLSASLGDRVTISCSASQGISNYLNWYQQKPDGTVKLLIYYTSSLHSGVPSRFSGSGSGTDYSLTISNLEPEDIATYYCQQYSKLPWTFGGGTKLELKRTVAAPSVFIFPPSDEQLKSGTASVVCLLNNFYPREAKVQWKVDNALQSGNSQESVTEQDSKDSTYSLSSTLTLSKADYEKHKVYACEVTHQGLSSPVTKSFNRGEC
modifications: Chimeric antibody sequence
On to B1, for which the KD entry is listed as “No” at Cyno in house BCMA (Run 1, Cyno in house BCMA) and “No” at Cyno in house BCMA (Run 2, Cyno in house BCMA). In addition, the ka with Human commercial BCMA (in M-1s-1 (unit assumed)) was 1.55E+06; in the assay with Human in house BCMA [1] (Run 1, Human in house BCMA) it was 4.75E+05; in the assay with Human in house BCMA [1] (Run 2, Human in house BCMA), 4.79E+05. In addition, the kd was determined as 1.48E−03 with Human commercial BCMA (in s-1 (unit assumed)); 1.95E−03 with Human in house BCMA [1] (Run 1, Human in house BCMA); 1.65E−03 with Human in house BCMA [1] (Run 2, Human in house BCMA).

B2: S332110D07: new anti-BCMA chimeric construct, probably S322110D07 (heavy chain SEQ ID NO:126, light chain SEQ ID NO:130) (antibody)
heavy: EVQLQQSGPELVKPGTSVKIPCKTSGYIFTDYSIDWVKQSHGKSLEWIGDIDPNYGDPIYNHKFKGKATLTVDRSSSTAYMELRSLTSEDTAVYFCARRATGTDWFAFWGQGTLVTVSS[omitted - human IgG1 constant region]
light: DIQMTQSPASLSVSVGETVTITCRASENIYNNLAWYQQKQGKSPQLLVYAATILADGVPSRFSGSGSGTQYSLKINSLQSGDFGTYYCQHFWGTPLTFGAGTKLELKRTVAAPSVFIFPPSDEQLKSGTASVVCLLNNFYPREAKVQWKVDNALQSGNSQESVTEQDSKDSTYSLSSTLTLSKADYEKHKVYACEVTHQGLSSPVTKSFNRGEC
modifications: Chimeric antibody sequence
Consider B2, for which, in the assay with Human in house BCMA [2], the ka is listed as 3.11E+05 and the kd is recorded as 3.77E−03.
